Source: publication PMC12820563, “FoxP3 forms a head-to-head dimer in vivo and stabilizes its multimerization on adjacent microsatellites”
The list shows a part of the results.

The sequences below were run against T1, MBP-FoxP1dN (Mus musculus, UniProt P58462 326-579) (assay: PD-seq (MBP pull-down with sequencing); 20 mM Tris-HCl pH 7.5, 100 mM NaCl, 1.5 mM MgCl2, 0.4 uM protein, 0.1 uM dsDNA library, 30 min, room temperature, amylose pull-down; high values mean tight binding). Settings: protein: recombinant; tags: His6-MBP; chain copies: 2; dsDNA, one strand shown.
T1 sequence: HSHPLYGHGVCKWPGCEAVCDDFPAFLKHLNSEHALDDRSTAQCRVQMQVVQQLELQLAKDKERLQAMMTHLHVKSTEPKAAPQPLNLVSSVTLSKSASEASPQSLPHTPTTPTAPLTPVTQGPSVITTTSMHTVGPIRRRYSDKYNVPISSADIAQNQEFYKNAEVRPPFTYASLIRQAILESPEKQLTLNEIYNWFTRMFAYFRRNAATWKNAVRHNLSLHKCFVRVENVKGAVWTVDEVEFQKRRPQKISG
Summary of the method: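 Binding is the reads-per-million enrichment of pull-down relative to input, pooled across replicates. For this, 0.4 µM His6-MBP-tagged mouse FoxP3 or FoxP1 fragment lacking the N-terminus, made in E. coli, was incubated with 0.1 µM Klenow-filled double-stranded degenerate DNA library for 30 min at room temperature in Tris pH 7.5 buffer with NaCl and MgCl2. Complexes bound to amylose resin were washed three times before proteinase K released the DNA for PCR barcoding and Illumina sequencing.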
“GATGATTGTTCTCCCAGCTGATGAATTAACGATCTCGAGTAAACAAATTTTCCTAATCTTTCTGTTCAAGCGCCATCTAC” was tested, and the binding signal was 0.918 RPM ratio (pull-down/input).
In the case of “GATGATTGTTCTCCCAGCTGATGAATTTATACCTTCGAGTAAACAAATTTTCCTAATCTTTCTGTTCAAGCGCCATCTAC”, the binding signal was 1.04 RPM ratio (pull-down/input).
For “GATGATTGTTCTCCCAGCTGATGAATTATCTTTTTCGAGTAAACAAATTTTCCTAATCTTTCTGTTCAAGCGCCATCTAC”, the binding signal was 1.02 RPM ratio (pull-down/input).
With “GATGATTGTTCTCCCAGCTGATGAATTGTACTAATCGAGTAAACAAATTTTCCTAATCTTTCTGTTCAAGCGCCATCTAC” the binding signal was 1.15 RPM ratio (pull-down/input).
For “GATGATTGTTCTCCCAGCTGATGAATTAAACACTTCGAGTAAACAAATTTTCCTAATCTTTCTGTTCAAGCGCCATCTAC”, the binding signal was 1.21 RPM ratio (pull-down/input).
For “GATGATTGTTCTCCCAGCTGATGAATTGAGTCCGTCGAGTAAACAAATTTTCCTAATCTTTCTGTTCAAGCGCCATCTAC”, the binding signal was 0.855 RPM ratio (pull-down/input).
“GATGATTGTTCTCCCAGCTGATGAATTTTTGTGATCGAGTAAACAAATTTTCCTAATCTTTCTGTTCAAGCGCCATCTAC” was tested, and the binding signal was 1.19 RPM ratio (pull-down/input).
In the case of “GATGATTGTTCTCCCAGCTGATGAATTACTTAGCTCGAGTAAACAAATTTTCCTAATCTTTCTGTTCAAGCGCCATCTAC”, the binding signal was 0.999 RPM ratio (pull-down/input).
“GATGATTGTTCTCCCAGCTGATGAATTGGCAGCGTCGAGTAAACAAATTTTCCTAATCTTTCTGTTCAAGCGCCATCTAC” was tested, and the binding signal was 0.941 RPM ratio (pull-down/input).
With “GATGATTGTTCTCCCAGCTGATGAATTGGTGCATTCGAGTAAACAAATTTTCCTAATCTTTCTGTTCAAGCGCCATCTAC” the binding signal was 1.35 RPM ratio (pull-down/input).
For “GATGATTGTTCTCCCAGCTGATGAATTTTATTTGTCGAGTAAACAAATTTTCCTAATCTTTCTGTTCAAGCGCCATCTAC”, the binding signal was 2.45 RPM ratio (pull-down/input).
In the case of “GATGATTGTTCTCCCAGCTGATGAATTGGGCTCTTCGAGTAAACAAATTTTCCTAATCTTTCTGTTCAAGCGCCATCTAC”, the binding signal was 0.836 RPM ratio (pull-down/input).
“GATGATTGTTCTCCCAGCTGATGAATTTATAGTATCGAGTAAACAAATTTTCCTAATCTTTCTGTTCAAGCGCCATCTAC” was tested, and the binding signal was 1.24 RPM ratio (pull-down/input).
With “GATGATTGTTCTCCCAGCTGATGAATTGAGTTAGTCGAGTAAACAAATTTTCCTAATCTTTCTGTTCAAGCGCCATCTAC” the binding signal was 0.899 RPM ratio (pull-down/input).
In the case of “GATGATTGTTCTCCCAGCTGATGAATTCTAATACTCGAGTAAACAAATTTTCCTAATCTTTCTGTTCAAGCGCCATCTAC”, the binding signal was 0.888 RPM ratio (pull-down/input).
For “GATGATTGTTCTCCCAGCTGATGAATTTTTTGAGTCGAGTAAACAAATTTTCCTAATCTTTCTGTTCAAGCGCCATCTAC”, the binding signal was 0.866 RPM ratio (pull-down/input).
“GATGATTGTTCTCCCAGCTGATGAATTCCCTCGCTCGAGTAAACAAATTTTCCTAATCTTTCTGTTCAAGCGCCATCTAC” was tested, and the binding signal was 0.751 RPM ratio (pull-down/input).
With “GATGATTGTTCTCCCAGCTGATGAATTTTACAAGTCGAGTAAACAAATTTTCCTAATCTTTCTGTTCAAGCGCCATCTAC” the binding signal was 0.831 RPM ratio (pull-down/input).
“GATGATTGTTCTCCCAGCTGATGAATTGTAATCTTCGAGTAAACAAATTTTCCTAATCTTTCTGTTCAAGCGCCATCTAC” was tested, and the binding signal was 1.06 RPM ratio (pull-down/input).
With “GATGATTGTTCTCCCAGCTGATGAATTGAGCTATTCGAGTAAACAAATTTTCCTAATCTTTCTGTTCAAGCGCCATCTAC” the binding signal was 0.843 RPM ratio (pull-down/input).
“GATGATTGTTCTCCCAGCTGATGAATTAATGATCTCGAGTAAACAAATTTTCCTAATCTTTCTGTTCAAGCGCCATCTAC” was tested, and the binding signal was 0.89 RPM ratio (pull-down/input).
In the case of “GATGATTGTTCTCCCAGCTGATGAATTCATGCCCTCGAGTAAACAAATTTTCCTAATCTTTCTGTTCAAGCGCCATCTAC”, the binding signal was 0.832 RPM ratio (pull-down/input).
“GATGATTGTTCTCCCAGCTGATGAATTTGGACGATCGAGTAAACAAATTTTCCTAATCTTTCTGTTCAAGCGCCATCTAC” was tested, and the binding signal was 0.904 RPM ratio (pull-down/input).
“GATGATTGTTCTCCCAGCTGATGAATTGCGCTAATCGAGTAAACAAATTTTCCTAATCTTTCTGTTCAAGCGCCATCTAC” was tested, and the binding signal was 1.18 RPM ratio (pull-down/input).
With “GATGATTGTTCTCCCAGCTGATGAATTGACGGCTTCGAGTAAACAAATTTTCCTAATCTTTCTGTTCAAGCGCCATCTAC” the binding signal was 1.02 RPM ratio (pull-down/input).
In the case of “GATGATTGTTCTCCCAGCTGATGAATTAGTCTCTTCGAGTAAACAAATTTTCCTAATCTTTCTGTTCAAGCGCCATCTAC”, the binding signal was 0.911 RPM ratio (pull-down/input).
With “GATGATTGTTCTCCCAGCTGATGAATTCGCAACTTCGAGTAAACAAATTTTCCTAATCTTTCTGTTCAAGCGCCATCTAC” the binding signal was 1.01 RPM ratio (pull-down/input).
With “GATGATTGTTCTCCCAGCTGATGAATTATTAATTTCGAGTAAACAAATTTTCCTAATCTTTCTGTTCAAGCGCCATCTAC” the binding signal was 1.34 RPM ratio (pull-down/input).
“GATGATTGTTCTCCCAGCTGATGAATTCATTGCCTCGAGTAAACAAATTTTCCTAATCTTTCTGTTCAAGCGCCATCTAC” was tested, and the binding signal was 0.872 RPM ratio (pull-down/input).
“GATGATTGTTCTCCCAGCTGATGAATTTACTATATCGAGTAAACAAATTTTCCTAATCTTTCTGTTCAAGCGCCATCTAC” was tested, and the binding signal was 1.45 RPM ratio (pull-down/input).
With “GATGATTGTTCTCCCAGCTGATGAATTCGGTCTTTCGAGTAAACAAATTTTCCTAATCTTTCTGTTCAAGCGCCATCTAC” the binding signal was 0.801 RPM ratio (pull-down/input).
With “GATGATTGTTCTCCCAGCTGATGAATTTCTCCTGTCGAGTAAACAAATTTTCCTAATCTTTCTGTTCAAGCGCCATCTAC” the binding signal was 0.819 RPM ratio (pull-down/input).
